Reference: patent US20240067727A1 (OSE IMMUNOTHERAPEUTICS, published 2024)
Each block holds one binder with its values, some of them ahead of it.

Key:
CD127 [1] = target: T1, CD127 (UniProt P16871 21-239, limits assumed); experiment: bridging ELISA: PD-1 immobilised, varied bifunctional molecule plus a fixed quantity of His-tagged CD127, detection with anti-His-biotin and streptavidin-peroxidase
T1 construct: For the Biacore assay the construct is not described; also called CD127 receptor; IL-7Ralpha
T1 sequence (looked up): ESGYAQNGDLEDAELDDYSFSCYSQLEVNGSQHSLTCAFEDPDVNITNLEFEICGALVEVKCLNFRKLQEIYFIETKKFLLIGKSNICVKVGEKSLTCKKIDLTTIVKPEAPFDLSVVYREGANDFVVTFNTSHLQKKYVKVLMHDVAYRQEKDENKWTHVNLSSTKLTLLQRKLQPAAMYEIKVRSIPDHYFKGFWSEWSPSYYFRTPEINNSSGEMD

CD127 [2] = target: T1, CD127; experiment: Biacore, CD127 immobilised on the sensor chip, molecule at escalating doses
[3] = target: T2, IL-7 receptor (IL-7R; CD127/CD132) on cells (human, UniProt P16871 21-459; P31785 23-369); experiment: flow cytometry on co-cultured U937 PD-1+CD127+ and U937 PD-1-CD127+ cells (1:1), detection with anti-human IgG-PE; bars of the binding EC50 (nM), n=2
T2 construct: whole, on cells; also called IL-7R on U937 CD127+ cells; IL-7R on human T cells
T2 sequence (looked up) 1: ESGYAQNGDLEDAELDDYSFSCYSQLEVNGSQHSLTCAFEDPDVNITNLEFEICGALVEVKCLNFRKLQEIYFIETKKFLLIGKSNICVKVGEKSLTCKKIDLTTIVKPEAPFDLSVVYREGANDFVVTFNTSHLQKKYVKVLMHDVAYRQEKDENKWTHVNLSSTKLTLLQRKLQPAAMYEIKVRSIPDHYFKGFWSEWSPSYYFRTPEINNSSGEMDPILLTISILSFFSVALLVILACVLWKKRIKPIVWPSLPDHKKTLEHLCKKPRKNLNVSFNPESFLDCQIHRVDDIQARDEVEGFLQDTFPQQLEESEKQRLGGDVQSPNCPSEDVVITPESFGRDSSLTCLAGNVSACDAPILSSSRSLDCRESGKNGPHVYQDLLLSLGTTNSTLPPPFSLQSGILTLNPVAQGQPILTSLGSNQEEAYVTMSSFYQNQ
T2 sequence (looked up) 2: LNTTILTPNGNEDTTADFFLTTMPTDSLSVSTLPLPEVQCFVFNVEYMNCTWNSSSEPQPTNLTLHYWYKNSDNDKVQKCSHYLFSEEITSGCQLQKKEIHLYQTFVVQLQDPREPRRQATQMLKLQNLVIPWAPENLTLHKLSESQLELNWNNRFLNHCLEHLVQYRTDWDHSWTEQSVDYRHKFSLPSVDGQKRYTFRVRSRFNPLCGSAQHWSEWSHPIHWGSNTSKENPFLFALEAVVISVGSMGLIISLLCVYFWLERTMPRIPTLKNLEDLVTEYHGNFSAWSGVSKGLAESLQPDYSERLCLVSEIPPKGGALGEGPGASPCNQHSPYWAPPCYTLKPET

EC50 (read off the curve) (CD127 [1]): ~0.9 nM
B1: anti PD-1*2 IL-7 W142H*1 (other)
heavy 1: QIQLVQSGSELKKPGASVKVSCKASGYTFTHYAMNWVRQAPGQGLEWMGWINTNTGEPTYAQGFTGRFVFSLDTSVSTAYLQISSLKAEDTAVYYCAREREPGMDNWGQGTLVTVSSASTKGPSVFPLAPSSKSTSGGTAALGCLVKDYFPEPVTVSWNSGALTSGVHTFPAVLQSSGLYSLSSVVTVPSSSLGTQTYICNVNHKPSNTKVDKKVEPKSCDKTHTCPPCPAPELLGGPSVFLFPPKPKDTLMISRTPEVTCVVVDVSHEDPEVKFNWYVDGVEVHNAKTKPREEQYASTYRVVSVLTVLHQDWLNGKEYKCKVSNKALPAPIEKTISKAKGQPREPQVYTLPPCRDELTKNQVSLWCLVKGFYPSDIAVEWESNGQPENNYKTTPPVLDSDGSFFLYSKLTVDKSRWQQGNVFSCSVMHEALHNHYTQKSLSLSPGK
heavy 2: QIQLVQSGSELKKPGASVKVSCKASGYTFTHYAMNWVRQAPGQGLEWMGWINTNTGEPTYAQGFTGRFVFSLDTSVSTAYLQISSLKAEDTAVYYCAREREPGMDNWGQGTLVTVSSASTKGPSVFPLAPSSKSTSGGTAALGCLVKDYFPEPVTVSWNSGALTSGVHTFPAVLQSSGLYSLSSVVTVPSSSLGTQTYICNVNHKPSNTKVDKKV[human IgG1 Fc with changes not written out]GGGGSGGGGSGGGGSDCDIEGKDGKQYESVLMVSIDQLLDSMKEIGSNCLNNEFNFFKRHICDANKEGMFLFRAARKLRQFLKMNSTGDFDLHLLKVSEGTTILLNCTGQVKGRKPAALGEAQPTKSLEENKSLKEQKKLNDLCFLKRLLQEIKTCHNKILMGTKEH
light: DVVMTQSPLSLPVTLGQPASISCRSSQSLVHANTNTYLEWYQQRPGQSPRLLIYKVSNRFSGVPDRFSGSGSGTDFTLKISRVEAEDVGVYYCFQGTHVPNTFGQGTKLEIKRTVAAPSVFIFPPSDEQLKSGTASVVCLLNNFYPREAKVQWKVDNALQSGNSQESVTEQDSKDSTYSLSSTLTLSKADYEKHKVYACEVTHQGLSSPVTKSFNRGEC
notes: also called construction 2; anti PD-1*2/IL-7v*1

Kd (CD127 [2]): 0.87 nM
B2: anti PD-1*2 IL7 wild type*2 (other)
heavy: QIQLVQSGSELKKPGASVKVSCKASGYTFTHYAMNWVRQAPGQGLEWMGWINTNTGEPTYAQGFTGRFVFSLDTSVSTAYLQISSLKAEDTAVYYCAREREPGMDNWGQGTLVTVSSASTKGPSVFPLAPCSRSTSESTAALGCLVKDYFPEPVTVSWNSGALTSGVHTFPAVLQSSGLYSLSSVVTVPSSSLGTKTYTCNVDHKPSNTKVDKRV[human IgG4 Fc with S228P L445P (EU numbers) not written out]GGGGSGGGGSGGGGSDCDIEGKDGKQYESVLMVSIDQLLDSMKEIGSNCLNNEFNFFKRHICDANKEGMFLFRAARKLRQFLKMNSTGDFDLHLLKVSEGTTILLNCTGQVKGRKPAALGEAQPTKSLEENKSLKEQKKLNDLCFLKRLLQEIKTCWNKILMGTKEH
light: B1 light
notes: Corresponds to construction 1 but with wild type IL-7; also called BICKI-IL-7 WT; anti PD-1*2 IL7WT*2

binding result [3]: binds
B3: anti PD-1*1 IL-7 W142H*2 (other)
chain: DKTHTCPPCPAPELLGGPSVFLFPPKPKDTLMISRTPEVTCVVVDVSHEDPEVKFNWYVDGVEVHNAKTKPREEQYASTYRVVSVLTVLHQDWLNGKEYKCKVSNKALPAPIEKTISKAKGQPREPQVYTLPPCRDELTKNQVSLWCLVKGFYPSDIAVEWESNGQPENNYKTTPPVLDSDGSFFLYSKLTVDKSRWQQGNVFSCSVMHEALHNHYTQKSLSLSPGKGGGGSGGGGSGGGGSDCDIEGKDGKQYESVLMVSIDQLLDSMKEIGSNCLNNEFNFFKRHICDANKEGMFLFRAARKLRQFLKMNSTGDFDLHLLKVSEGTTILLNCTGQVKGRKPAALGEAQPTKSLEENKSLKEQKKLNDLCFLKRLLQEIKTCHNKILMGTKEH
heavy: QIQLVQSGSELKKPGASVKVSCKASGYTFTHYAMNWVRQAPGQGLEWMGWINTNTGEPTYAQGFTGRFVFSLDTSVSTAYLQISSLKAEDTAVYYCAREREPGMDNWGQGTLVTVSSASTKGPSVFPLAPSSKSTSGGTAALGCLVKDYFPEPVTVSWNSGALTSGVHTFPAVLQSSGLYSLSSVVTVPSSSLGTQTYICNVNHKPSNTKVDKKV[human IgG1 Fc with changes not written out]GGGGSGGGGSGGGGSDCDIEGKDGKQYESVLMVSIDQLLDSMKEIGSNCLNNEFNFFKRHICDANKEGMFLFRAARKLRQFLKMNSTGDFDLHLLKVSEGTTILLNCTGQVKGRKPAALGEAQPTKSLEENKSLKEQKKLNDLCFLKRLLQEIKTCHNKILMGTKEH
light: B1 light
notes: also called construction 4; anti PD-1*1/IL-7v*2
